The record followed here is patent US7592316B2, “Peptides as NS3-serine protease inhibitors of hepatitis C virus” (Schering Corporation, priority 2000, dated 2009).

*1 amine or outer side, *2 acyl side, *3 side chain or, on linkers, in order; H or OH if unused. Where a SMILES comes first, the peptide text is derived from it. [ ]: non-standard residue; d: D form. The star is where a group is joined. ξ: configuration not given here. ξ(3-Amino-2-oxopentanoyl) = CCC(N[*:1])C(=O)C(=O)[*:2]; ξPhg(3,5-(OMe)2) = COc1cc(OC)cc(C(N)C(=O)O)c1; ξLeu(ψCOCO) = CC(C)CC(N[*:1])C(=O)C(=O)[*:2]; ξPhg(2,3-(OMe)2) = COc1cccc(C(N)C(=O)O)c1OC; X28 = O=C(Cc1cc(C(F)(F)F)cc(C(F)(F)F)c1)*; X25 = O=C(O)c1c(F)c(F)c(F)c(F)c1C(=O)*; ξPhg(3-OMe) = COc1cccc(C(N)C(=O)O)c1; ξPhg(3-Cl) = NC(C(=O)O)c1cccc(Cl)c1; X4 = CCCCC(N[*:1])C(=O)C(=O)[*:2]; ξPhg(3-F) = NC(C(=O)O)c1cccc(F)c1; Hyp = O=C(O)[C@@H]1C[C@@H](O)CN1; X2 = CCCC(N[*:1])C(=O)C(=O)[*:2]; Chg = N[C@H](C(=O)O)C1CCCCC1; Phg = N[C@H](C(=O)O)c1ccccc1; Tle = CC(C)(C)[C@H](N)C(=O)O; X30 = CC(C(=O)O)C(C)C(=O)*; X31 = O=C(O)c1nccnc1C(=O)*; ξChg = NC(C(=O)O)C1CCCCC1; ξPhg = NC(C(=O)O)c1ccccc1; X29 = Cc1cccc(C)c1C(=O)*; ξNle = CCCCC(N)C(=O)O; Bn = c1ccc(C*)cc1; OtBu = CC(C)(C)O*; Sar = CNCC(=O)O; tBu = CC(C)(C)*

The target in the assay is HCV NS3/NS4A protease (strain 1a) (Hepatitis C virus genotype 1a, UniProt P27958). In words: biochemical. To be noted: Compounds prepared by Solid Phase Synthesis, Table 3; read-out: Ki* CLASS.
The Ki is the equilibrium dissociation constant of an inhibitor or competing ligand from its target. As to `CCCC(NC(=O)[C@@H]1C[C@@H](OC(C)(C)C)CN1C(=O)[C@@H](NC(=O)c1c(F)c(F)c(F)c(F)c1C(=O)O)C1CCCCC1)C(=O)C(=O)NCC(=O)N[C@H](C(N)=O)c1ccccc1` (stereo partly drawn) (X25-[Chg][Hyp](tBu)[X2]G[Phg]-NH2), the Ki is 0.001 to 0.1 µM.

Regarding `CCCC(NC(=O)[C@@H]1C[C@@H](OC(C)(C)C)CN1C(=O)[C@@H](NC(=O)c1c(F)c(F)c(F)c(F)c1C(=O)O)C1CCCCC1)C(=O)C(=O)NCC(=O)N[C@H](CC(=O)OC(C)(C)C)C(N)=O` (stereo partly drawn) (X25-[Chg][Hyp](tBu)[X2]G[dD](OtBu)-NH2), the inhibitory constant (Ki) is > 1 µM.

With `CCCC(NC(=O)[C@@H]1C[C@@H](OC(C)(C)C)CN1C(=O)[C@@H](NC(=O)c1c(F)c(F)c(F)c(F)c1C(=O)O)C1CCCCC1)C(=O)C(=O)NCC(=O)NC(C(N)=O)c1cccc(OC)c1OC` (stereo partly drawn) (X25-[Chg][Hyp](tBu)[X2]G[ξPhg(2,3-(OMe)2)]-NH2), the Ki lay in the range of 0.101 to 1 µM.

In the case of `CCCC(NC(=O)[C@@H]1C[C@@H](OC(C)(C)C)CN1C(=O)[C@@H](NC(=O)c1c(F)c(F)c(F)c(F)c1C(=O)O)C1CCCCC1)C(=O)C(=O)NCC(=O)NC(C(N)=O)c1cc(OC)cc(OC)c1` (stereo partly drawn) (X25-[Chg][Hyp](tBu)[X2]G[ξPhg(3,5-(OMe)2)]-NH2), the inhibition constant (Ki) was 0.101 to 1 µM.

For the molecule `CCCC(NC(=O)[C@@H]1C[C@@H](OC(C)(C)C)CN1C(=O)[C@@H](NC(=O)c1c(F)c(F)c(F)c(F)c1C(=O)O)C1CCCCC1)C(=O)C(=O)NCC(=O)NC(C(N)=O)c1cccc(Cl)c1` (stereo partly drawn) (X25-[Chg][Hyp](tBu)[X2]G[ξPhg(3-Cl)]-NH2), the Ki lay in the range of 0.001 to 0.1 µM.

In the case of `CCCC(NC(=O)[C@@H]1C[C@@H](OC(C)(C)C)CN1C(=O)[C@@H](NC(=O)c1c(F)c(F)c(F)c(F)c1C(=O)O)C1CCCCC1)C(=O)C(=O)NCC(=O)NC(C(N)=O)c1cccc(F)c1` (stereo partly drawn) (X25-[Chg][Hyp](tBu)[X2]G[ξPhg(3-F)]-NH2), the Ki is 0.101 to 1 µM.

As to `CCCC(NC(=O)[C@@H]1C[C@@H](OC(C)(C)C)CN1C(=O)[C@@H](NC(=O)c1c(F)c(F)c(F)c(F)c1C(=O)O)C1CCCCC1)C(=O)C(=O)NCC(=O)NC(C(N)=O)c1cccc(OC)c1` (stereo partly drawn) (X25-[Chg][Hyp](tBu)[X2]G[ξPhg(3-OMe)]-NH2), the inhibition constant Ki is 0.101 to 1 µM.

`CCCC(NC(=O)[C@@H]1C[C@@H](OC(C)(C)C)CN1C(=O)[C@@H](NC(=O)c1c(F)c(F)c(F)c(F)c1C(=O)O)C1CCCCC1)C(=O)C(=O)N(C)CC(=O)N[C@H](C(N)=O)c1ccccc1` (stereo partly drawn) (X25-[Chg][Hyp](tBu)[X2][Sar][Phg]-NH2): the Ki is > 1 µM.

Regarding `CCC(NC(=O)[C@@H]1C[C@@H](OC(C)(C)C)CN1C(=O)[C@@H](NC(=O)c1c(F)c(F)c(F)c(F)c1C(=O)O)C1CCCCC1)C(=O)C(=O)NCC(=O)N[C@H](C(N)=O)c1ccccc1` (stereo partly drawn) (X25-[Chg][Hyp](tBu)[ξ(3-Amino-2-oxopentanoyl)]G[Phg]-NH2), the inhibition constant Ki was in the range of 0.001 to 0.1 µM.

`CC(C)CC(NC(=O)[C@@H]1C[C@@H](OC(C)(C)C)CN1C(=O)[C@@H](NC(=O)c1c(F)c(F)c(F)c(F)c1C(=O)O)C1CCCCC1)C(=O)C(=O)NCC(=O)N[C@H](C(N)=O)c1ccccc1` (stereo partly drawn) (X25-[Chg][Hyp](tBu)[ξLeu(ψCOCO)]G[Phg]-NH2): the Ki was > 1 µM.

For the molecule `CCCC(NC(=O)[C@@H]1C[C@@H](O)CN1C(=O)[C@@H](NC(=O)c1c(F)c(F)c(F)c(F)c1C(=O)O)C1CCCCC1)C(=O)C(=O)NCC(=O)NC(C(N)=O)c1cc(OC)cc(OC)c1` (stereo partly drawn) (X25-[Chg][Hyp][X2]G[ξPhg(3,5-(OMe)2)]-NH2), the Ki was 0.101 to 1 µM.

For `CCCC(NC(=O)[C@@H]1C[C@@H](OC(C)(C)C)CN1C(=O)[C@@H](NC(=O)c1c(F)c(F)c(F)c(F)c1C(=O)O)C(C)(C)C)C(=O)C(=O)NCC(=O)N[C@H](C(N)=O)c1ccccc1` (stereo partly drawn) (X25-[Tle][Hyp](tBu)[X2]G[Phg]-NH2), the inhibition constant (Ki) lay in the range of 0.101 to 1 µM.

Turning to `CCCCC(NC(=O)CNC(=O)C(=O)C(CCC)NC(=O)[C@@H]1C[C@@H](OC(C)(C)C)CN1C(=O)C(NC(=O)Cc1cc(C(F)(F)F)cc(C(F)(F)F)c1)C1CCCCC1)C(N)=O` (stereo partly drawn) (X28-[ξChg][Hyp](tBu)[X2]G[ξNle]-NH2), the inhibitory constant (Ki) is > 1 µM.

As for `CCCC(NC(=O)[C@@H]1C[C@@H](OCc2ccccc2)CN1C(=O)C(NC(=O)c1c(C)cccc1C)C1CCCCC1)C(=O)C(=O)NCC(=O)NC(C(N)=O)c1ccccc1` (stereo partly drawn) (X29-[ξChg][Hyp](Bn)[X2]G[ξPhg]-NH2), the Ki lay within 0.101 to 1 µM.

For `CCCCC(NC(=O)[C@@H]1C[C@@H](OCc2ccccc2)CN1C(=O)C(NC(=O)c1c(C)cccc1C)C1CCCCC1)C(=O)C(=O)NCC(=O)NC(C(N)=O)c1ccccc1` (stereo partly drawn) (X29-[ξChg][Hyp](Bn)[X4]G[ξPhg]-NH2), the inhibition constant Ki fell in the range of 0.101 to 1 µM.

With `CCCC(NC(=O)[C@@H]1C[C@@H](OCc2ccccc2)CN1C(=O)C(NC(=O)C(C)C(C)C(=O)O)C1CCCCC1)C(=O)C(=O)NCC(=O)NC(C(=O)O)c1ccccc1` (stereo partly drawn) (X30-[ξChg][Hyp](Bn)[X2]G[ξPhg]-OH), the inhibition constant (Ki) was in the range of 0.101 to 1 µM.

Take `CCCC(NC(=O)[C@@H]1C[C@@H](OCc2ccccc2)CN1C(=O)C(NC(=O)c1nccnc1C(=O)O)C1CCCCC1)C(=O)C(=O)NCC(=O)NC(C(N)=O)c1ccccc1` (stereo partly drawn) (X31-[ξChg][Hyp](Bn)[X2]G[ξPhg]-NH2): the Ki lay within 0.101 to 1 µM.

Consider `CCCCC(NC(=O)[C@@H]1C[C@@H](OCc2ccccc2)CN1C(=O)C(NC(=O)c1nccnc1C(=O)O)C1CCCCC1)C(=O)C(=O)NCC(=O)NC(C(N)=O)c1ccccc1` (stereo partly drawn) (X31-[ξChg][Hyp](Bn)[X4]G[ξPhg]-NH2), for which the Ki fell in the range of 0.101 to 1 µM.
